± gives the standard deviation of the averaged measurements. The list shows a part of the results.
Test system: PfAP2-I AP2 domain 3 (GST-tagged)
Test: gcPBM binding intensity (ln(normalized median fluorescence intensity)); higher = stronger DNA binding
Method in brief: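 DNA-binding domains from P. falciparum, fused to GST and produced in E. coli, were put on an Agilent 4 × 180k double-stranded probe array for 1 h in 1× PBS holding 1% milk, 0.2 mg/ml BSA, 0.5% salmon testes DNA and 0.03% Triton X-100. Probes were primer-extended, 36 bp long and drawn from intergenic genomic regions, with negative controls included. After Alexa488 anti-GST antibody detection and a 488 nm scan, binding intensity was set as the highest Masliner-normalised natural-log median intensity across replicate spots of either probe orientation.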

Row | Sequence | gcPBM binding intensity (ln)
1 | TTTTGTAAAAAAAAAAAAAAAGGAAAATTAAAATAA [CACACA_negctrl_site803] | 7.32 ± 0.67
2 | TTTCCTATTTAATATAGTACATAAGAAATAATTTTA [XGTACX_site5952] | 7.48 ± 0.38
3 | CTTGTATTTAAACACACACACACTTTCTTTTTTTAA [CACACA_site5133] | 7.99 ± 0.49
4 | AATATTATAATATAAACACACAAAATTCAATTATAT [CACACA_site3789] | 7.6 ± 0.68
5 | AACGTTCATATTTCCACACACAAAAAATAAATATAA [CACACA_site3344] | 8.21 ± 0.33
6 | TTAATATTAATATATTGTACATATATGCACATATTT [XGTACX_site6569] | 9.1 ± 0.18
7 | AAAAATAAAGGGCGAAAAAAAAAAAAAAAAAAAAAA [GTGCAC_negctrl_site671] | 8.14 ± 0.71
8 | ATTAATAATATTCCTTGTACATGATTTTTCTAAATA [XGTACX_site7099] | 7.9 ± 0.47
9 | TATAAATATAAATACACACACACATCAATACAGATA [CACACA_site5850] | 7.87 ± 0.29
10 | AAAAAAAAAAAAAAAACACACATACACCCCCACCCA [CACACA_site9117] | 9.83 ± 0.085
11 | TATAATAATGCCTTTACATGCAATAATAAAGAAATA [TGCATGCA_site631] | 7.82 ± 0.47
12 | AATGAATTAATAGCTACACACGGTAACATAATAACT [CACACA_site851] | 7.67 ± 0.59
13 | TCTTTTGAACAAATTTGTACGTATATAAAAATATTT [XGTACX_site6547] | 7.88 ± 0.47
14 | TGTGTTAATAGAAAAAGTACATATACATATATATAT [XGTACX_site4951] | 8.98 ± 0.22
15 | TGCACAGACGGACACACACACAACTAAAAAATAATG [CACACA_site5424] | 8.26 ± 0.26
16 | ATATTTCATCTAGCTACACACATATAACAAATTACT [CACACA_site7843] | 8.19 ± 0.54
17 | TACATAAAAATATCACGTACATATAATCATATACTA [XGTACX_site3505] | 7.69 ± 0.23
18 | ACCTTTGATATATACACACACATAAAAAAAATATAT [CACACA_site6952] | 8.35 ± 0.38
19 | TTCTTTTTCCAATTTGCACACCACAAAATTATATAT [CACACA_site2909] | 9.94 ± 0.21
20 | TCAAATTATATGAGTGGTACACATGTAATATTTTTA [XGTACX_site6518] | 7.6 ± 0.28
21 | AAAAAACGACCTTACGCACACATTATTCTAGTCTAT [CACACA_site2349] | 8.31 ± 0.62
22 | ATATTTTGTATAATCACACACACTATTATTAAATAG [CACACA_site2612] | 7.79 ± 0.58
23 | TTACATTTTTTATGTTTTTTTATATTGCAAAAAAAT [CACACA_negctrl_site1050] | 8 ± 0.16

Row | Sequence | gcPBM binding intensity (ln)
24 | ATATATATATATATATGTACTTATTAAGATTAAAAA [XGTACX_site61] | 9.26 ± 0.27
25 | AAAAAAATATATATTACACACATATATACATATATA [CACACA_site3125] | 7.82 ± 0.32
26 | TTAAATATAAAAAGTAGTACATTTATATTTACCATA [XGTACX_site2962] | 7.74 ± 0.16
27 | TTTTTTTTTTAAAAAACACACACCTAAACAAGATAT [CACACA_site875] | 7.96 ± 0.59
28 | ATATATATATATATTTGTACATATATATAATTTTTC [XGTACX_site7460] | 9.49 ± 0.64
29 | AAAATAAAAAAAAAAGGTACACAAAAAGATGGACTG [XGTACX_site2650] | 7.83 ± 0.64
30 | TATAATTGTCTTCACACACACATATATATATATATA [CACACA_site2743] | 9.36 ± 0.35
31 | ATGTTGTCAAAAAAATGTACTTACATAATATTTTCC [XGTACX_site1732] | 7.68 ± 0.52
32 | CGCATACACCAACACACACACACATATATATATATA [CACACA_site635] | 9.53 ± 0.52
33 | TATAAATACTTATATGTACACACATATAGATATATA [CACACA_site8819] | 7.65 ± 0.042
34 | ATCTAATATATATTCTGTACGTAATTAAAACCACAA [XGTACX_site3152] | 8.21 ± 0.39
35 | AGAAGTCTGTAATGATGTACTGGAAAAATATAAATA [XGTACX_site8148] | 7.68 ± 0.63
36 | TAGATCTTATTTACAAGTACATATATACGATTCATT [XGTACX_site7578] | 7.65 ± 0.51
37 | CACCCCCACAGACACACACACACACCCATATATATA [CACACA_site364] | 9.09 ± 0.59
38 | AAGATTCATTGGTTCTGTACAAAATAAACACTATAA [XGTACX_site834] | 7.81 ± 0.45
39 | TTACCAAAAAAATGTAGTACAATATAATATTATTTA [XGTACX_site5750] | 8.12 ± 0.12
40 | AATATATATATTTAAGTGCATAATATTGTAATATTA | 10.4 ± 0.38
41 | ATATATTATGAAGACTGTACATTTACATGAAAAAAA [XGTACX_site7203] | 7.83 ± 0.59
42 | ATAAAAATAAAAAGTGTGCACACAAAAATATATATA [GTGCAC_site9931] | 9.96 ± 0.33
43 | TTAATTGACATAAAAAGTACTCATATAGATATGCAC [XGTACX_site6391] | 8.965 ± 0.078
44 | AAAAAGAACAGAAACACACAAATAAAATAAAATTGT [CACACA_site6921] | 7.72 ± 0.61
45 | AAATGTTAATAAAGGTGTACACAAAATAAAAAAAAT [XGTACX_site463] | 8.76 ± 0.57
